# Measured values as given in article PMC4336329 (PLoS ONE, 2015).
# In all, about 310,000 compounds went through this assay and about 2,200 (0.71%) showed an effect of 50% or more. Effects have a minus sign here. Some of the results follow.
# Biological target: human ether-à-go-go-related gene (hERG) potassium channel (human, UniProt Q12809)
# Assay: primary screen, population patch clamp on CHO cells stably expressing hERG
# Chain of human ether-à-go-go-related gene (hERG) potassium channel (Q12809 whole entry, looked up): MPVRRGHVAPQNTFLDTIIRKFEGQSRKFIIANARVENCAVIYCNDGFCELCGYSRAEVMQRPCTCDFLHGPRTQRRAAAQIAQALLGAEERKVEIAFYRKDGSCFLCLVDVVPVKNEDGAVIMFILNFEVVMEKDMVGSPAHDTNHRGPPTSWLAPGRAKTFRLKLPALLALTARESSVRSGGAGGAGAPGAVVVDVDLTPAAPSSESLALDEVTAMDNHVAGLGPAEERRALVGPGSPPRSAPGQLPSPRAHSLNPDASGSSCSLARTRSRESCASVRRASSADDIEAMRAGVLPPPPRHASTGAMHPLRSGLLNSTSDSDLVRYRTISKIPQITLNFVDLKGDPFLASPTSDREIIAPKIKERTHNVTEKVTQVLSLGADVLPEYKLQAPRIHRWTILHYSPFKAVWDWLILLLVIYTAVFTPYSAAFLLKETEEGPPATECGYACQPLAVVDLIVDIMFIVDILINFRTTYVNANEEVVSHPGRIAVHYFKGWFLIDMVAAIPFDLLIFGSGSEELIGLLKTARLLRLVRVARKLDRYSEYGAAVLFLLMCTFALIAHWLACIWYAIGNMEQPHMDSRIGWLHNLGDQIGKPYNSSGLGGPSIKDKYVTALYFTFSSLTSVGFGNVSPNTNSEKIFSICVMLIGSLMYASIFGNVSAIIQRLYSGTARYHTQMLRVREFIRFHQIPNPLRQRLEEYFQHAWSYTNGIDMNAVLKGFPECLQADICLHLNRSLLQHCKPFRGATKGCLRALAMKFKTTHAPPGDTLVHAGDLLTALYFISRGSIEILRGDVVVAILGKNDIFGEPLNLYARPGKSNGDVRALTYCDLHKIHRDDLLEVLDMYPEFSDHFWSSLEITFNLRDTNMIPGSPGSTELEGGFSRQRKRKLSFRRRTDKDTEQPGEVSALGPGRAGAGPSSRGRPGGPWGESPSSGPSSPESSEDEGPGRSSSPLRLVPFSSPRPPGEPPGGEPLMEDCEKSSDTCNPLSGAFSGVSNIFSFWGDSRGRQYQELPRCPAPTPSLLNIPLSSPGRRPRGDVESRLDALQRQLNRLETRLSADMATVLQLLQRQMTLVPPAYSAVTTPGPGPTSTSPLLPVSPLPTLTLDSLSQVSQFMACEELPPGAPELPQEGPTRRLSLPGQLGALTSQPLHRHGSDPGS
row,Structure (SMILES),"hERG current change (%, negative = inhibition) at 1uM"
1,CC(C)[C@H](NC(=O)c1ccco1)C(=O)OCC(=O)N(C)c1ccccc1,4.31%
2,CCOC(=O)C(C)Oc1ccc(C2NC(=O)NC(C)=C2C(C)=O)cc1Br (centres unmarked),4.32%
3,C[N+](C)(C)CCCCCCCCCC[N+](C)(C)C.[Br-],7.97%
4,O=C(CCNS(=O)(=O)c1ccc2c(c1)CCC(=O)N2)Nc1ccc2c(c1)OCCO2,5.34%
5,COc1ccc([N+](=O)[O-])cc1NC(=O)C1C2C=CC(C2)C1C(=O)O (centres unmarked),6.24%
6,O=C1C(C=NCC2CCCO2)=C(O)c2ccccc21 (centres unmarked),2.24%
7,CC(=O)C(Cc1ccccc1)NC(=O)COC(=O)CCN1C(=O)C2CC=CCC2C1=O (centres unmarked),15.6%
8,C=CCOc1ccc(C(=O)/C=C2/C(=O)Nc3ccccc32)cc1,7.9%
9,Cn1c(CSCc2ccc(F)cc2)nnc1SCC(=O)Nc1nccs1,1.32%
10,COC(=O)Nc1nncs1,10.2%
11,C/C(=C\C(=O)c1cccnc1)Nc1ccc(C(=O)O)cc1,14.3%
12,O=C(NC1CCCC1)c1ccc2nc[nH]c2c1,5.07%
13,COc1ccc(S(=O)(=O)N2CCCCC2)cc1NC(=O)C1CC(=O)N(c2ccc3c(c2)OCCO3)C1 (centres unmarked),2.32%
14,CCN(C(=O)COC(=O)c1cccs1)c1c(N)n(Cc2ccccc2)c(=O)[nH]c1=O,18.7%
15,COc1cc(C(=O)NCc2nnc(SCC(=O)Nc3nc4ccc(C)cc4s3)o2)cc(OC)c1OC,9.61%
16,CC1(C(=O)NC2CCCCCCC2)CC1(Cl)Cl (centres unmarked),2.6%
17,Cc1ccc(C)c(NC(=O)c2cnccn2)c1,15%
18,COc1ccc(N2C(=O)NC(=O)C2=O)cc1,6.15%
19,CC1(C)CC(=O)C(C=NCCCN2CCCC2=O)=C(O)C1,6.9%
20,CCCc1nc(SC2CCCC2)c2c(=O)n(C)c(=O)n(C)c2n1,11.2%
21,CC(=O)N1N=C(c2ccccc2)CC1c1ccccc1[N+](=O)[O-] (centres unmarked),8.43%
22,Cn1c(-c2cccc(Br)c2)n[nH]c1=O,11.1%
23,CCCN1CCC(NC(=O)Nc2ccc(Br)cc2)CC1,11.5%

row,Structure (SMILES),"hERG current change (%, negative = inhibition) at 1uM"
1,O=C(NCc1ccncc1)C(=O)NCC(c1ccccc1)c1ccccc1,-7.42%
2,CCCCCOc1ccc(C(=O)N(Cc2ccco2)C2CCS(=O)(=O)C2)cc1 (centres unmarked),13.4%
3,O=C(Nc1ccc(Cl)cc1)Nc1ccccn1,10.7%
4,Cc1cccc(NC(=O)COC(=O)CCCC2=NS(=O)(=O)c3ccccc3N2)c1,11.9%
5,COc1ccc(C(CC(=O)c2ccccc2)CC(=O)c2ccccc2)cc1,7.56%
6,COc1cccc(COC(=O)c2ccc(S(=O)(=O)N3CCC(C)CC3)cc2)c1OC,15.2%
7,Cc1ccc(Nc2nc(CSc3nnc(-c4ccccc4C)n3C)cs2)cc1,0.526%
8,CCCCCn1c(=O)c(C(=O)OCC)c(Cl)c2ccccc21,17.8%
9,COC(OC)c1ccc(C#N)c(=O)[nH]1,9.77%
10,COCCCNC(=S)Nc1ccc(S(=O)(=O)Nc2cc(OC)nc(OC)n2)cc1,-3.02%
11,CCC(CC)NCc1ccc2c(c1)c1ccccc1n2CC.O=C(O)C(=O)O,8.46%
12,Brc1ccc(-c2noc3c2-c2nc(-c4ccccc4)sc2CC3)cc1,9.83%
13,Cc1cc(NC(=O)CCCn2nc([N+](=O)[O-])c(Cl)c2C)no1,10.1%
14,CCC(=O)n1nc(-c2ccc(Cl)cc2)nc1SC,12.3%
15,O=C(NCCc1ccccc1)C(=O)NCC1OCCN1S(=O)(=O)c1ccc(Cl)cc1 (centres unmarked),13.5%
16,CC(=O)c1ccc(N2CCN(C(=S)Nc3cccc(F)c3)CC2)cc1,8.38%
17,CC(C)[C@H](NC(=O)OC(C)(C)C)C(=O)NCC1CCC(C(=O)N[C@@H](Cc2ccccc2)C(=O)O)CC1 (some centres unmarked),8.89%
18,COc1ccc2[nH]c(=O)c(CNC3CCCCC3)cc2c1,2.1%
19,Fc1ccc(COc2ccc(Cl)cc2/C=N/Nc2nc(N3CCCC3)nc(N3CCCC3)n2)cc1,-1.58%
20,C=CCn1c(=O)/c(=C2/Sc3ccccc3N2CC)s/c1=C1/C(=O)NN=C1C,16.4%
21,CCCC/C(O)=C1\C(=O)CCCC1=NCCc1c(C)[nH]c2ccccc12,0.821%
22,Cc1ccc(OC(=O)C(F)(F)F)c2c1NCCC2,-7.8%
23,FC(F)(F)c1cccc(-c2ccn3ncnc3n2)c1,5.81%

row,Structure (SMILES),"hERG current change (%, negative = inhibition) at 1uM"
1,O=C(N[C@@H](Cc1ccccc1)C(=O)O)c1cccnc1,10.8%
2,COc1ccccc1C(=O)NC(=O)COC(=O)CN1C(=O)NC2(CCCCC2C)C1=O (centres unmarked),-1.66%
3,CC(C)CN(C(=O)CN1CCN(c2ccc(O)cc2)CC1)c1c(N)n(CC(C)C)c(=O)[nH]c1=O,19.1%
4,Cc1[nH]n(-c2cccc(Cl)c2)c(=O)c1C=NCc1ccco1,8.62%
5,CCCOC(=O)c1cc(=O)[nH]c2ccccc12,5.09%
6,Cc1ccc(NC(=O)n2ncc3c(C)cccc32)cc1F,19.5%
7,CCc1ccc(N2CCN(CCNC(=O)Nc3ccccc3)CC2)cc1,12.4%
8,Cn1nnnc1Sc1c(Cl)cccc1[N+](=O)[O-],9.05%
9,CS(=O)(=O)N1CCN(c2ccc([N+](=O)[O-])c(NCc3ccccc3)c2)CC1,7.2%
10,Cc1ccc(S(=O)(=O)N2CCN(S(=O)(=O)N3CCOCC3)CC2)c(C)c1,7.27%
11,O=C(Nc1c2c(nn1-c1ccc(F)cc1)CSC2)c1ccc(S(=O)(=O)N2CCOCC2)cc1,-7.15%
12,COc1ccc(OC)c(-n2c(SCC(C)=O)nnc2-c2cccc(S(=O)(=O)N(C)C)c2)c1,-2.1%
13,Cc1sc2c(c1C)CN(CCN1CCOCC1)CN2C(=O)c1ccccc1,17.5%
14,C=CCSc1nc2ccccc2n1C(=O)/C=C/c1ccc(OC)c(OC)c1,-4.26%
15,Cc1ccc(CN2CCNC(=O)C2CC(=O)NCCCn2cccn2)o1 (centres unmarked),6.47%
16,CN(C)CCCNC(=S)/N=c1\sccn1Cc1ccccc1Cl,-0.0435%
17,Nc1ccccc1SCC(=O)Nc1ccc2c(c1)OCCO2,11.9%
18,Cc1ccsc1CN(C)C(=O)CN1C(=O)NC(c2ccccc2)(c2ccccc2)C1=O,-1.56%
19,CC(C)c1ccccc1OCC(=O)Nc1cc(S(=O)(=O)N2CCOCC2)ccc1N1CCCC1,10.4%
20,O=C(CSc1nc2cc(Cl)ccc2s1)NCc1ccc2c(c1)OCO2,3.04%
21,Cc1cccc(NC(=O)CCNC(=O)c2ccccc2Cl)n1,8.39%
22,COC(=O)CSc1nnc2c3c4c(sc3nc(-n3nc(C)cc3C)n12)COC(C)(C)C4,12.8%
23,Brc1ccc(-c2nnc(-c3ccco3)o2)cc1,-4%

row,Structure (SMILES),"hERG current change (%, negative = inhibition) at 1uM"
1,O=c1[nH]c(NCCO)nc2ncn(Cc3ccccc3)c12,21.8%
2,COc1cc(NC(=O)COC(=O)c2ccc(C)c(S(=O)(=O)N3CCCCC3)c2)c(C)cc1[N+](=O)[O-],9.19%
3,Cc1ccc(C(=O)N2CC(C)OC(C)C2)cc1S(=O)(=O)N1CCCCC1 (centres unmarked),11.7%
4,COc1cc(NC(=S)NCCSc2ccc(C)cc2)cc(OC)c1,5.75%
5,Oc1cnc2ccccc2c1CN1CCOCC1,21.2%
6,Cc1ccc(NC(=O)Cn2cc(C(=O)C3CC3)c3ccccc32)cc1,16.1%
7,COc1ccc(Br)cc1S(=O)(=O)N(CC(=O)N1CCOCC1)c1ccccc1,-22.2%
8,O=C(Nc1ccn(Cc2ccccc2)n1)c1ccc(F)cc1,16.4%
9,Cc1cc(-c2nc(C)c(C(=O)NNS(=O)(=O)c3ccccc3)s2)no1,16.7%
10,O=C(NCCc1cccc(Cl)c1)c1ccc(Cl)c([N+](=O)[O-])c1,-0.411%
11,CC(=O)NC(Cc1cccc(F)c1)C(=O)NC1CCN(C(=O)c2ccc(C)cc2)CC1 (centres unmarked),22.1%
12,Cc1nc(C(C)NC(=O)c2ccc(OC3CCN(Cc4ccccn4)CC3)cc2)c(C)s1 (centres unmarked),7.38%
13,CCOc1ccc(NCc2nnc(SCc3ccc(Cl)cc3)n2-c2ccccc2)cc1,15.2%
14,CN1CCC(n2nccc2N)CC1,16.4%
15,COc1ccccc1N(CC(=O)N(CC(C)C)CC(C)C)S(=O)(=O)c1cccs1,8.07%
16,CCOCCCn1c(=S)[nH]c2cc(C(=O)NCCc3ccccc3)ccc2c1=O,12.9%
17,CC12CCC(C(=O)N/N=C/c3ccc(O)cc3O)(OC1=O)C2(C)C (centres unmarked),12.4%
18,Cc1nc(SC(C)C(=O)Nc2c(C)n(C)n(-c3ccccc3)c2=O)nc(C)c1C (centres unmarked),4.82%
19,O=C(COc1ncnc2ccccc12)Nc1cc([N+](=O)[O-])ccc1F,1.17%
20,CC(=O)Nc1sc2c(c1C(c1ccncc1)N1CCOCC1)CCCC2 (centres unmarked),7.4%
